± gives the standard deviation of the averaged measurements. Laboratory Escherichia coli strains with one amino-acid change in an essential protein, pooled on minimal glucose agar with carbenicillin or gentamicin at twice the control MIC (plus kanamycin and chloramphenicol for the plasmids), 48 h. Fold change of barcode share against drug-free plates; higher = less susceptible. Active = above 20 in both replicates (the paper's putatively resistant). '<' = one read or none on drug, '>' = one read or none on a drug-free plate. Shares are relative, so most strains fall below 1 when a few take over. Listed are strains with at least 15 reads on both drug-free plates, and hits; most hits rest on fewer reference reads. Replicate rank correlation about 0.5. Edits are read from barcodes.
B1: yrfF; numbered along this chain (parent)
chain: MSTIVIFLAALLACSLLAGWLIKVRSRRRQLPWTNAFADAQTRKLTPEERSAVENYLESLTQVLQVPGPTGASAAPISLALNAESNNVMMLTHAITRYGISTDDPNKWRYYLDSVEVHLPPFWEQYINDENTVELIHTDSLPLVISLNGHTLQEYMQETRSYALQPVPSTQASIRGEESEQIELLNIRKETHEEYALSRPRGLREALLIVASFLMFFFCLITPDVFVPWLAGGALLLLGAGLWGLFAPPAKSSLREIHCLRGTPRRWGLFGENDQEQINNISLGIIDLVYPAHWQPYIAQDLGQQTDIDIYLDRHVVRQGRYLSLHDEVKNFPLQHWLRSTIIAAGSLLVLFMLLFWIPLDMPLKFTLSWMKGAQTIEATSVKQLADAGVRVGDTLRISGTGMCNIRTSGTWSAKTNSPFLPFDCSQIIWNDARSLPLPESELVNKATALTEAVNRQLHPKPEDESRVSASLRSAIQKSGMVLLDDFGDIVLKTADLCSAKDDCVRLKNALVNLGNSKDWDALVKRANAGKLDGVNVLLRPVSAESLDNLVATSTAPFITHETARAAQSLNSPAPGGFLIVSDEGSDFVDQPWPSASLYDYPPQEQWNAFQKLAQMLMHTPFNAEGIVTKIFTDANGTQHIGLHPIPDRSGLWRYLSTTLLLLTMLGSAIYNGVQAWRRYQRHRTRMMEIQAYYESCLNPQLITPSESLIE
B2: yihA; numbered along this chain (parent)
chain: MTNLNYQQTHFVMSAPDIRHLPSDTGIEVAFAGRSNAGKSSALNTLTNQKSLARTSKTPGRTQLINLFEVADGKRLVDLPGYGYAEVPEEMKRKWQRALGEYLEKRQSLQGLVVLMDIRHPLKDLDQQMIEWAVDSNIAVLVLLTKADKLASGARKAQLNMVREAVLAFNGDVQVETFSSLKKQGVDKLRQKLDTWFSEMQPVEETQDGE

Columns and labels:
[1] = variants of: B1; assay: barcode share on antibiotic plates over drug-free plates; higher = less susceptible; conditions: with Escherichia coli (laboratory strain); antibiotic: gentamicin; 2× MIC (MIC 0.45 µg/mL)
Method: (§1)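 A pool of E. coli strains, each edited to carry one amino-acid change in an essential protein, was grown for 48 h on minimal glucose agar with or without antibiotic; strain barcodes were sequenced; mean of two replicates.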

[2] = variants of: B2; assay: as above; conditions: with Escherichia coli (laboratory strain)
Method: as §1

[3] = antibiotic: carbenicillin, 2× MIC (3.1 µg/mL)
[4] = antibiotic: gentamicin, 2× MIC (MIC 0.45 µg/mL)

| Variant | fold change of barcode share [1] | fold change of barcode share [2, 3] | fold change of barcode share [2, 4] |
| --- | --- | --- | --- |
| W123Q | 0.00631 ± 0.0037 | – | – |
| MTNLNYQQTHFVMSAPDIRHLPSDTGIEVAFAGRSNAGKSSALNTLTNQKSLARTSKTPGRTQLINLFEVADGKRLVDLPGYGYAEVPEEMKRKWQRALGEYLEKRQSLQGAVVLMDIRHPLKDLDQQMIEWAVDSNIAVLVLLTKADKLASGARKAQLNMVREAVLAFNGDVQVETFSSLKKQGVDKLRQKLDTWFSEMQPVEETQDGE [L112A] | – | 0.305 ± 0.013 | 0.00346 ± 0.00039 |
| MTNLNYQQTHFVMSAPDIRHLPSDTGIEVAFAGRSNAGKSSALNTLTNQKSLARTSKTPGRTQLINLFEVADGKRLVDLPGYGYAEVPEEMKRKWQRALGEYLEKRQSLQGQVVLMDIRHPLKDLDQQMIEWAVDSNIAVLVLLTKADKLASGARKAQLNMVREAVLAFNGDVQVETFSSLKKQGVDKLRQKLDTWFSEMQPVEETQDGE [L112Q] | – | 0.392 ± 0.077 | < 0.00209 |
| MTNLNYQQTHFVMSAPDIRHLPSDTGIEVAFAGRSNAGKSSALNTLTNQKSLARTSKTPGRTQLINLFEVADGKRLVDLPGYGYAEVPEEMKRKWQRALGEYLEKRQSLQGWVVLMDIRHPLKDLDQQMIEWAVDSNIAVLVLLTKADKLASGARKAQLNMVREAVLAFNGDVQVETFSSLKKQGVDKLRQKLDTWFSEMQPVEETQDGE [L112W] | – | 0.77 ± 0.17 | 0.00375 ± 0.0027 |
| MTNLNYQQTHFVMSAPDIRHLPSDTGIEVAFAGRSNAGKSSALNTLTNQKSLARTSKTPGRTQLINLFEVADGKRLVDLPGYGYAEVPEEMKRKWQRALGEYLEKRQSLQGLVALMDIRHPLKDLDQQMIEWAVDSNIAVLVLLTKADKLASGARKAQLNMVREAVLAFNGDVQVETFSSLKKQGVDKLRQKLDTWFSEMQPVEETQDGE [V114A] | – | 0.45 ± 0.27 | 0.0039 ± 0.0015 |
| MTNLNYQQTHFVMSAPDIRHLPSDTGIEVAFAGRSNAGKSSALNTLTNQKSLARTSKTPGRTQLINLFEVADGKRLVDLPGYGYAEVPEEMKRKWQRALGEYLEKRQSLQGLVDLMDIRHPLKDLDQQMIEWAVDSNIAVLVLLTKADKLASGARKAQLNMVREAVLAFNGDVQVETFSSLKKQGVDKLRQKLDTWFSEMQPVEETQDGE [V114D] | – | 0.49 ± 0.16 | 0.0656 ± 0.072 |
| MTNLNYQQTHFVMSAPDIRHLPSDTGIEVAFAGRSNAGKSSALNTLTNQKSLARTSKTPGRTQLINLFEVADGKRLVDLPGYGYAEVPEEMKRKWQRALGEYLEKRQSLQGLVPLMDIRHPLKDLDQQMIEWAVDSNIAVLVLLTKADKLASGARKAQLNMVREAVLAFNGDVQVETFSSLKKQGVDKLRQKLDTWFSEMQPVEETQDGE [V114P] | – | 0.522 ± 0.12 | – |
| MTNLNYQQTHFVMSAPDIRHLPSDTGIEVAFAGRSNAGKSSALNTLTNQKSLARTSKTPGRTQLINLFEVADGKRLVDLPGYGYAEVPEEMKRKWQRALGEYLEKRQSLQGLVQLMDIRHPLKDLDQQMIEWAVDSNIAVLVLLTKADKLASGARKAQLNMVREAVLAFNGDVQVETFSSLKKQGVDKLRQKLDTWFSEMQPVEETQDGE [V114Q] | – | 0.489 ± 0.089 | 0.00209 ± 0.0018 |
| MTNLNYQQTHFVMSAPDIRHLPSDTGIEVAFAGRSNAGKSSALNTLTNQKSLARTSKTPGRTQLINLFEVADGKRLVDLPGYGYAEVPEEMKRKWQRALGEYLEKRQSLQGLVVPMDIRHPLKDLDQQMIEWAVDSNIAVLVLLTKADKLASGARKAQLNMVREAVLAFNGDVQVETFSSLKKQGVDKLRQKLDTWFSEMQPVEETQDGE [L115P] | – | 0.271 ± 0.079 | 0.00334 ± 0.003 |
